# Test results taken from PubChem BioAssay AID1347120 (National Center for Advancing Translational Sciences (NCATS), 2019).
# The whole screen tested about 390,000 compounds, of which about 930 (0.24%) were called active. Inconclusive results, whose numbers are uncertain, are shown with a selection of clear calls. Calls follow the shape of the dose curve; as a rule, active = well fitted activation curve with a large enough effect; inconclusive = small, poorly fitted or top-dose-only effect; inactive = no such curve, though single readings can be large or run the other way. Potencies beside an inconclusive call are fits to weak or partial responses and may not hold up.
# Test: qHTS for Suppressors of FUS Proteinopathy: Primary screen using FUS-linked yeast assay; also: nearly all actives have a fitted effect of over 55% in size
# Conditions: S. cerevisiae FUS-expressing, OD600, 24 h; Potency: growth rescue; series mostly up to 76.6 µM
# Procedure, shortened: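 S. cerevisiae expressing FUS from galactose induction served as the toxicity model. Growth after 24hr at 30C, read as absorbance at 600 nm, indicates suppression of toxicity; compounds dosed at several concentrations.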
# Potency is read from the fitted curve at half-maximal effect; tags tell the direction and shape of the fitted curve.
row,SMILES,Potency
1,CC(C)(C)C(=O)Nc1ccc(C(=O)N/N=C/c2ccccc2OC(=O)c2ccccc2)cc1,"inconclusive: 50.1 µM [activator, single point]"
2,CC1CCCN(S(=O)(=O)c2cc(C(=O)NCc3ccccc3Cl)n(C)c2)C1 (stereo unspecified),"inconclusive: 28.2 µM [activator, single point]"
3,CCN(CC)C(=O)[C@H]1C[C@H](CC(=O)NCC23CC4CC(CC(C4)C2)C3)C(=O)N2CCc3c([nH]c4ccc(Cl)cc34)[C@]12C,inactive
4,CC(=O)c1ccc(S(=O)(=O)N2CCN(CC(=O)Nc3ccc(Cl)c([N+](=O)[O-])c3)CC2)cc1,"inconclusive: 39.8 µM [activator, single point]"
5,CCOCCc1nn2c(=O)cc(COC(=O)CNC(=O)c3ccc(F)cc3)nc2s1,inactive
6,CCCCCCCCN1C(=O)[C@H](CC(=O)NCc2ccc(OC)c(OC)c2)C[C@@]2(C(=O)OCC)CCCC=C12,"inconclusive: 50.1 µM [activator, single point]"
7,COc1ccc(C(=O)Oc2cc(/C=N/NC(N)=S)ccc2OC)cc1,"inconclusive: 44.7 µM [activator, single point]"
8,CCCCOCCCNC(=O)C[C@H]1C[C@@]2(C(=O)OC)C(=C[C@H](COCc3ccccc3)O[C@@H]2C)N(Cc2cccc3ccccc23)C1=O,"inconclusive: 31.6 µM [activator, single point]"
9,O=C(CCc1nnc2ccc(NCc3ccco3)nn12)N1CCN(c2ccc(F)cc2)CC1,inactive
10,CN(Cc1ccccc1)C(=O)c1cccc(NC(=O)c2nsc3ccccc23)c1,"inconclusive: 50.1 µM [activator, single point]"
11,COC(=O)c1ccc(COc2ccc(C(=O)c3ccccc3)cc2)o1,inactive
12,COC(=O)[C@]12C[C@H](CC(=O)NCC3CCCCC3)C(=O)N(CCc3ccc(OC)c(OC)c3)C1=C[C@H](C1CCCC1)O[C@@H]2C,"inconclusive: 22.4 µM [activator, partial curve, poor fit]"
13,CCCCC1CCC(c2nc(-c3ccccn3)no2)CC1 (stereo unspecified),"inconclusive: 50.1 µM [activator, partial curve, poor fit]"
14,COc1ccc(C(=O)C2CCN(CC(=O)Nc3cc(C)cc(C)c3)CC2)cc1,"inconclusive: 25.1 µM [activator, partial curve, poor fit]"
15,CSc1nnc2ccc(-c3ccccn3)nn12,inactive
16,COC(=O)C1=C(C)N=c2s/c(=C/c3ccoc3)c(=O)n2C1c1ccccc1 (stereo unspecified),"inconclusive: 25.1 µM [activator, partial curve, poor fit]"
